Where a name gives a salt, the structure may show the parent alone. In all, about 1,500 compounds went through this assay and about 30 (2%) showed activity.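 The calls were made as follows: active = robust z-score below -2; a few such results were not called.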 Some of the results follow.
Each compound was assayed on optoTopBP1 Flp-In 293 T-REx (HEK293) cells (assay: light-induced TopBP1 condensate (nuclear foci) count, plate-normalised robust z-score vs non-control wells; higher = more TopBP1 condensates (negative = condensation inhibitor), active = hit call of the paper). Conditions: 10 µM; incubation time 2 h.

Row | Compound | light-induced TopBP1 condensate (z-score)
1 | CN1CCN(CCCN2c3ccccc3Sc3ccc(C(F)(F)F)cc32)CC1 [Trifluoperazine dihydrochloride] | inactive: -1.07
2 | COc1ccc(OC)c(C(O)CNC(=O)CN)c1 (centres undefined) [Midodrine hydrochloride] | inactive: -0.342
3 | CN(C)CCN1C(=O)c2ccccc2N(C)c2ccccc21 [Dibenzepine hydrochloride] | inactive: 0.243
4 | CN(C(=O)C(Cl)Cl)c1ccc(OC(=O)c2ccco2)cc1 [Diloxanide furoate] | inactive: 0.164
5 | Nc1ccn([C@H]2CC[C@@H](CO)O2)c(=O)n1 [Zalcitabine] | inactive: 0.161
6 | CN(C)CCOC(C)(c1ccccc1)c1ccccn1 (centres undefined) [Doxylamine succinate] | inactive: 0.568
7 | CC(=O)c1ccc2c(c1)N(CCCN(C)C)c1ccccc1S2 [Acetopromazine maleate salt] | inactive: -0.654
8 | C[C@@H](O)[C@H]1C(=O)N2C(C(=O)O)=C(S[C@@H]3CN[C@H](CNS(N)(=O)=O)C3)[C@H](C)[C@H]12 [Doripenem monohydrate] | inactive: 1.08
9 | Oc1c(I)cc(Cl)c2cccnc12 [Clioquinol] | inactive: -0.446
10 | CC(C)(C#N)c1cc(Cn2cncn2)cc(C(C)(C)C#N)c1 [Anastrozole] | inactive: 0.567
11 | C(=C\c1ccccc1)/CN1CCN(C(c2ccccc2)c2ccccc2)CC1 [Cinnarizine] | inactive: -0.84
12 | O=C(C1CCCCC1)N1CC(=O)N2CCc3ccccc3C2C1 (centres undefined) [Praziquantel] | inactive: -0.679
13 | COc1ccc2c(c1)c(CC(=O)O)c(C)n2C(=O)c1ccc(Cl)cc1 [Indomethacin] | inactive: 0.294
14 | Nc1nc2ccc(OC(F)(F)F)cc2s1 [Riluzole hydrochloride] | inactive: -0.134
15 | CN1CCC(=C2c3ccccc3CCc3cccnc32)CC1 [Azatadine maleate] | inactive: -1.62
16 | CC(C)(C)NCC(O)COc1cccc2c1CCC(=O)N2 (centres undefined) [Carteolol hydrochloride] | inactive: 1.6
17 | C=C1c2c(Cl)ccc(O)c2C(=O)C2=C(O)[C@]3(O)C(=O)C(C(N)=O)=C(O)[C@@H](N(C)C)[C@@H]3[C@@H](O)[C@H]12.O=C(O)c1cc(S(=O)(=O)O)ccc1O [Meclocycline sulfosalicylate] | inactive: 0.506
18 | CC(=O)NCCCS(=O)(=O)O [Acamprosate calcium] | inactive: -1.11
19 | CCOC(=O)O[C@]1(C(=O)COC(=O)CC)CC[C@H]2[C@@H]3CCC4=CC(=O)C=C[C@]4(C)[C@H]3[C@@H](O)C[C@@]21C [Prednicarbate] | inactive: 0.076

Reference: the supplement of paper PMC12582362
